Source: the RNAGym collection of RNA variant scans (doi:10.1101/gad.245936.114)
Variants at the floor of the assay are shown more often than the library holds them.

B1: tRNA (parent)
chain: CUCUCGGUAGCCAAGUUGGUUUAAGGCGCAAGACUUUAAUUUAUCACUACGAAAUCUUGAGAUCGGGCGUUCGACUCGCCCCCGGGAGAUUUUUUCCUCGAGCAA

Variants of: B1
Experiment: nonsense suppression (GFP-seq) (ratio to wild type); higher = more function; SUP4oc tRNA, yeast GFP reporter sort-seq
Summary of the method: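 To measure nonsense suppression, tRNA variants from a library carrying ~3% random mutations were integrated into the yeast genome alongside RFP and a GFP ochre reporter under galactose control. Growth took place in raffinose/galactose medium supplemented with 80 mg/L adenine, followed by sorting into GFP/RFP bins and Illumina sequencing of each bin (phred ≥30). For each variant with ≥100 reads and ≥30 cells, the bin median GFP/RFP values were weighted by its estimated cell share per bin and referenced to the unmutated parent tRNA.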

CUCUCGAUAACCAAGUUGGUGUAAGGCGCAAGGCUUUAAUUUAUCACUACGAAAUCUCGUCAUCGGGCGUUCGACUCGCCCCCGGGAGAUUUUUUCCUCGAGCAA and CUCUCGAUAGCCAACUUAGUUUAAGGCGCAAGACUUUAAUUUAUCACUACGAAAUCUUGAGAUCGGGCGUUCGACUCACCCCCAGGUGAUUUUUUCCUCGAGCAA cannot be ordered by nonsense suppression: at most 0.026 for the first, at most 0.026 for the second.

CUCUCGAUAGCCAAGUUGGUUUAAGGCGCAGGACUUUAAUUUAUCACUACGAAAACUUGAGAUCGGGCGUUCGACUCGCCCCCGGGAGAUUUUUUCCUCGAGCAA and CUCUCGAUAGCCAAGUUGGUUUAAGGCGCAAGACUUUAAUUUAUCACUACGAAAUCUUGAGAUCGGGCGUUCGACUUGCCCCCGGGAGAUUUUUUCCUCGAGCAA cannot be ordered by nonsense suppression: at most 0.026 for the first, at most 0.026 for the second.

CUCUCGAUAGCCAAGUUGGUUUAAGGCGCAAGACUUUAAUUUAUCACUACGAAAUCUUGAGAUCGGGCGUUCGACUGGCCCCCGGGAGAUUUUUUCCUCGAGCAA and CUCUCGAUAGCCAAGUUGGUUUAAUGCGCAAGACUUUAAUUUAUCACUACGAAAUCUUGAUAUCGGGCGUUCGACUCGCCCCCGGGAGAUUUUUUCCUCGAGCAA cannot be ordered by nonsense suppression: at most 0.026 for the first, at most 0.026 for the second.

CUCUCGAUAGCCAAGUUGGUUUAAGGCUCAAGACUUUAAUUUAUCACUACGAAAUCUUGAGAUCGGGCGUUCGACUCGCCCCCGGGAGAUUUUUUCCUCGAGCAA and CUCUCGAUAGCCAAGUUGGUUUAAGGCACAAGACUUUAAUUUAUCACUACGAAAUCUUGAGAUCGGGCGUUCGACUCGCCCCCGGGAGAUUUUUUCCUCGAGCAA cannot be ordered by nonsense suppression: at most 0.026 for the first, at most 0.026 for the second.

CUCUCGAUAGCCUAGUUGGUUUAAGGCGCAAGACUUUAAUUUAUCACUACGAAAUCUGGAGAUCGGGCGUUCGACUCGCCCCCGGCAGAUUUUUUCCUCGAGCAA and CUCUCGAUAGCCAAGUUGGUUUAAUGCGCAAGACUUUAAUUUAUCACUACGAAAUCUUGAGAUCGGGCGUUCGACUCGCCCCCGGGAGAUUUUUUCCUCGAGCAA cannot be ordered by nonsense suppression: at most 0.026 for the first, at most 0.026 for the second.

CUCUCGAUAGCCAAGUUGGUUUAAGUCGAAAGACUUUAAUUUAUCACUACGAAAUCUUGAGAUCGGGCGUUCGACUCGCCCCCGGGAGAUUUUUUCCUCGAGCAA and CUCUCGAUAGCUAAGUUGGUUUAAGGCGCAAGACUUUAAUUUAUCACUACGAAACCUUGAGAUCGGGCGUUCGACACGCCCCCGGGAGAUUUUUUCCUCGAGCAA cannot be ordered by nonsense suppression: at most 0.026 for the first, at most 0.026 for the second.

CUCUCGAUAGCCAAGUUGGUUUAAGGCGCAAGAAUUUAAUUUAUCACUACGAAAUCUUGAGAUCGGGCGUUGGAGUCGCCCCUGGGAGAUUUUUUCCUCGAGCAA and CUCUCGAUAGCCAAGUUGGUUUAAGGCGGAAGACUUUAAUUUAUCACUACGAAAUCUUGAGAUCGGGCGUUCGGCUCGCCCCCGGGAGAUUUUUUCCUCGAGCAA cannot be ordered by nonsense suppression: at most 0.026 for the first, at most 0.026 for the second.

CUCUCGAUAGCCAAGUUGGUUUAAGGCGCAAGACUUUAAUUUAUCACUACGAAAUCUUGAGAUCGGGCGUUCGACUCGCCGCCGAGAGAUUUUUUCCUCGAGCAA and CUCUCGAUAGCCAAGUUGGUUUAACGCGCAAGACUUUAAUUUAUCACUACGAAAUCUUGCGAUCGGGCGUUCGACUCGCCCCCGGGAGAUUUUUUCCUCGAGCAA cannot be ordered by nonsense suppression: at most 0.026 for the first, at most 0.026 for the second.

Going from CUCUCGAUAGCCAAGUUGGUUUAAGGCGCGAGACUUUAAUUUAUCACUACGAAAUCUUGAGAUCGGGCGUUCGACUCGCCCCCGGGAGAUUUUUUCCUCGAGCAA to CUCUCGAUAGCCAAGUUGGUUUAAGGCGCUAGACUUUAAUUUAUCACUACGAAAUCUUGAGAUCGGGCGUUCGACUCGCCCCCGGGAGAUUUUUUCCUCGAGCAA, the nonsense suppression rises from at most 0.026 to 0.0309.

CUCUCGAUAGCCAAGUUGGUUUAAGGCGCAAGACUUUAAUUUAUCACUACGAAAUGUUGAGAUCGGGCGUUCGACUCGGCACCGGGAGAUUUUUUCCUCGAGCAA and CUCUCGAUAGCCAAGUUGGUUUAAGGCGCAAGACUUUAAUUUAUCACUACGAAAUCUUGAGAUCGGGCGUUCGUCUCGCCCCCGGGGGAUUUUUUCCUCGAGCAA cannot be ordered by nonsense suppression: at most 0.026 for the first, at most 0.026 for the second.

CUCUCGAUACCCAAGUUGGUUUGAGGCGCAAGACUUUAAUUUAUCACUACGAAAUAUUGAGAUCGGGCGUUCGACUCGCCCCCGGGAGAUUUUUUCCUCGAGCAA and CUCUCGAUAGCCAAGUUGGUUUGAGGCGCAAGACUUUAAUUUAUCACUACGAAAUCUUGAGAUCGGGCGUUCGUCUCGCCGCCGGGAGAUUUUUUCCUCGAGCAA cannot be ordered by nonsense suppression: at most 0.026 for the first, at most 0.026 for the second.

CUCUCGAUAGCCAAGUUGGUUUAAGGCGCAAGACUUUAAUUUAUCACUACGAAAUCUUGAGAUAGAGCGUUCGACUCGCUCCCGGGAGAUUUUUUCCUCGAGCAA and CUCUCGAUAGCCAAGUUGGUUUAAGCCGCAAGACUUUAAUUUAUCACUACGAAAUCUUGAGAUCGGACGUUCGACUCGCCCCCGGGAGAUUUUUUCCUCGAGCAA cannot be ordered by nonsense suppression: at most 0.026 for the first, at most 0.026 for the second.

CUCUCGAUAGCCAAGUUGGUUUAAGGGGCAAGACUUUAAUUUAUCACUACGAAAUCUUGAGAUCGGGCGUUCGACUCGCCCCCGGGAGAUUUUUUCCUCGAGCAA and CUCUCGAUAGCCAAGUUGGUUUAAGGCGCAAGACUUUAAUUUAUCACUACGAAAUGUUGAGAUCGGGCGUUCGACUCGCCCCCGGGAGAUUUUUUCCUCGAGCAA cannot be ordered by nonsense suppression: at most 0.026 for the first, at most 0.026 for the second.

CUCUCGAUAGCCAGGUUGGUUUAAGGCGCAAGACUUUAAUUUAUCACUACGAAAUCUUGAGGCCGGGCGUUCGACUCGCCCCCGGGAGAUUUUUUCCUCGAGCAA gave a nonsense suppression of at most 0.026.
